According to the supplement of paper PMC9151546:
Many values rest on one well or one pass, so single values are uncertain.

Legend:
CHO-K1 [1] = experiment: micronucleus frequency (% of nucleated events); higher = more micronuclei (genotoxic)
CHO-K1 [2] = experiment: hypodiploid nuclei frequency (% of nucleated events); higher = more hypodiploid events (aneugenic)
CHO-K1 [3] = experiment: relative survival (nuclei to bead ratio vs DMSO control) (% of vehicle control); higher = more surviving cells
Procedure: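 Flow-cytometric in vitro micronucleus assay (Litron MicroFlow) in CHO-K1 cells in 96-well plates, 19 concentrations (4.5-200 µM, n=1 per concentration). Without S9, cells were exposed for 24 h and sampled at 48 h. With Aroclor 1254-induced rat liver S9, cells were exposed for 3-4 h and sampled at 27-28 h. Read-outs are %MN and %hypodiploid nuclei relative to nucleated events, and relative survival as the nuclei-to-bead ratio versus the 1% DMSO vehicle control (x100).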
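For hypodiploid nuclei frequency (% of nucleated events) in this document: hypodiploid nuclei gated on a flow cytometer with 488 nm excitation after SYTOX Green staining, cultures at 37 °C, positive controls vinblastine without S9 and cyclophosphamide with S9.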
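For micronucleus frequency (% of nucleated events) in this document: cells lysed with nuclei stained by SYTOX Green, then micronucleus-gated events counted against nucleated events by flow cytometry with 488 nm excitation.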
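For relative survival (nuclei to bead ratio vs DMSO control) in this document: Lysed-cell nuclei stained with SYTOX Green and counted against counting beads by flow cytometry at 488 nm excitation, with vinblastine (no S9) and cyclophosphamide (plus S9) as positive controls.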

CN(C)c1ccc(C(=O)c2ccc(N(C)C)cc2)cc1 [Michler's ketone]
Settings	hypodiploid nuclei frequency, CHO-K1 [2] [%]	micronucleus frequency, CHO-K1 [1] [%]	relative survival, CHO-K1 [3]
concentration: 4.5 (µM), S9 metabolic activation: with S9, exposure time: 3-4 hours	0.22	0.96	90.1
concentration: 4.5 (µM), S9 metabolic activation: without S9, exposure time: 24 hours	–	–	24.9
concentration: 5.63 (µM), S9 metabolic activation: with S9, exposure time: 3-4 hours	0.18	1.1	121
concentration: 5.63 (µM), S9 metabolic activation: without S9, exposure time: 24 hours	–	–	13.3
concentration: 7.04 (µM), S9 metabolic activation: with S9, exposure time: 3-4 hours	0.28	1.22	102
concentration: 8.8 (µM), S9 metabolic activation: with S9, exposure time: 3-4 hours	0.22	1.34	131
concentration: 11 (µM), S9 metabolic activation: with S9, exposure time: 3-4 hours	0.18	1.36	108
concentration: 11 (µM), S9 metabolic activation: without S9, exposure time: 24 hours	–	–	8.55
concentration: 13.7 (µM), S9 metabolic activation: with S9, exposure time: 3-4 hours	0.26	1.86	109
concentration: 13.7 (µM), S9 metabolic activation: without S9, exposure time: 24 hours	–	–	13.8
concentration: 17.2 (µM), S9 metabolic activation: with S9, exposure time: 3-4 hours	0.24	1.52	99.9
concentration: 17.2 (µM), S9 metabolic activation: without S9, exposure time: 24 hours	–	–	9.24
concentration: 21.5 (µM), S9 metabolic activation: with S9, exposure time: 3-4 hours	0.3	1.58	123
concentration: 21.5 (µM), S9 metabolic activation: without S9, exposure time: 24 hours	–	–	7.59
concentration: 26.8 (µM), S9 metabolic activation: with S9, exposure time: 3-4 hours	0.3	0.94	175
concentration: 26.8 (µM), S9 metabolic activation: without S9, exposure time: 24 hours	–	–	9.22
concentration: 33.6 (µM), S9 metabolic activation: with S9, exposure time: 3-4 hours	0.46	1.28	138
concentration: 33.6 (µM), S9 metabolic activation: without S9, exposure time: 24 hours	–	–	10.1
concentration: 41.9 (µM), S9 metabolic activation: with S9, exposure time: 3-4 hours	1.24	1.98	81.9
concentration: 41.9 (µM), S9 metabolic activation: without S9, exposure time: 24 hours	–	–	18.2
concentration: 52.4 (µM), S9 metabolic activation: with S9, exposure time: 3-4 hours	7.41	6.98	62.4
concentration: 52.4 (µM), S9 metabolic activation: without S9, exposure time: 24 hours	–	–	17.7
concentration: 65.5 (µM), S9 metabolic activation: with S9, exposure time: 3-4 hours	19.2	16.3	45.2
concentration: 65.5 (µM), S9 metabolic activation: without S9, exposure time: 24 hours	–	–	15.7
concentration: 81.9 (µM), S9 metabolic activation: with S9, exposure time: 3-4 hours	27.4	30.1	44.4
concentration: 81.9 (µM), S9 metabolic activation: without S9, exposure time: 24 hours	–	–	18.4
concentration: 102 (µM), S9 metabolic activation: with S9, exposure time: 3-4 hours	20.5	22.9	42.5
concentration: 102 (µM), S9 metabolic activation: without S9, exposure time: 24 hours	–	–	25.4
concentration: 128 (µM), S9 metabolic activation: with S9, exposure time: 3-4 hours	–	–	39.8
concentration: 128 (µM), S9 metabolic activation: without S9, exposure time: 24 hours	–	–	25.4
concentration: 160 (µM), S9 metabolic activation: with S9, exposure time: 3-4 hours	–	–	39.8
concentration: 160 (µM), S9 metabolic activation: without S9, exposure time: 24 hours	–	–	22.6
concentration: 200 (µM), S9 metabolic activation: with S9, exposure time: 3-4 hours	–	–	28.3
concentration: 200 (µM), S9 metabolic activation: without S9, exposure time: 24 hours	–	–	18.7

Cc1cc(N=Nc2ccccc2C)ccc1N [2-Amino-5-azotoluene]
Settings	hypodiploid nuclei frequency, CHO-K1 [2] [%]	micronucleus frequency, CHO-K1 [1] [%]	relative survival, CHO-K1 [3]
concentration: 4.5 (µM), S9 metabolic activation: with S9, exposure time: 3-4 hours	0.26	1.36	118
concentration: 4.5 (µM), S9 metabolic activation: without S9, exposure time: 24 hours	0.6	1.68	111
concentration: 5.63 (µM), S9 metabolic activation: with S9, exposure time: 3-4 hours	0.2	1.36	103
concentration: 5.63 (µM), S9 metabolic activation: without S9, exposure time: 24 hours	0.74	1.8	105
concentration: 7.04 (µM), S9 metabolic activation: with S9, exposure time: 3-4 hours	0.24	1.3	110
concentration: 7.04 (µM), S9 metabolic activation: without S9, exposure time: 24 hours	0.6	1.38	101
concentration: 8.8 (µM), S9 metabolic activation: with S9, exposure time: 3-4 hours	0.23	1.3	111
concentration: 8.8 (µM), S9 metabolic activation: without S9, exposure time: 24 hours	0.7	1.46	120
concentration: 11 (µM), S9 metabolic activation: with S9, exposure time: 3-4 hours	0.23	1.36	101
concentration: 11 (µM), S9 metabolic activation: without S9, exposure time: 24 hours	0.56	1.66	99.2
concentration: 13.7 (µM), S9 metabolic activation: with S9, exposure time: 3-4 hours	0.19	1.36	107
concentration: 13.7 (µM), S9 metabolic activation: without S9, exposure time: 24 hours	0.78	2.12	116
concentration: 17.2 (µM), S9 metabolic activation: with S9, exposure time: 3-4 hours	0.21	1.38	105
concentration: 17.2 (µM), S9 metabolic activation: without S9, exposure time: 24 hours	0.8	2.5	95.7
concentration: 21.5 (µM), S9 metabolic activation: with S9, exposure time: 3-4 hours	0.26	1.16	103
concentration: 21.5 (µM), S9 metabolic activation: without S9, exposure time: 24 hours	0.62	2.42	111
concentration: 26.8 (µM), S9 metabolic activation: with S9, exposure time: 3-4 hours	0.29	2.02	106
concentration: 26.8 (µM), S9 metabolic activation: without S9, exposure time: 24 hours	1.18	1.64	84.4
concentration: 33.6 (µM), S9 metabolic activation: with S9, exposure time: 3-4 hours	0.29	1.65	101
concentration: 33.6 (µM), S9 metabolic activation: without S9, exposure time: 24 hours	0.86	1.56	109
concentration: 41.9 (µM), S9 metabolic activation: with S9, exposure time: 3-4 hours	0.28	2.04	98.8
concentration: 41.9 (µM), S9 metabolic activation: without S9, exposure time: 24 hours	1.16	2.1	97
concentration: 52.4 (µM), S9 metabolic activation: with S9, exposure time: 3-4 hours	0.34	1.89	104
concentration: 52.4 (µM), S9 metabolic activation: without S9, exposure time: 24 hours	1.28	2.02	97
concentration: 65.5 (µM), S9 metabolic activation: with S9, exposure time: 3-4 hours	0.31	1.83	103
concentration: 65.5 (µM), S9 metabolic activation: without S9, exposure time: 24 hours	1.14	1.94	92.5
concentration: 81.9 (µM), S9 metabolic activation: with S9, exposure time: 3-4 hours	0.24	1.46	102
concentration: 81.9 (µM), S9 metabolic activation: without S9, exposure time: 24 hours	1.72	2.72	80.4
concentration: 102 (µM), S9 metabolic activation: with S9, exposure time: 3-4 hours	0.49	1.73	89.9
concentration: 102 (µM), S9 metabolic activation: without S9, exposure time: 24 hours	1.72	2	89.2
concentration: 128 (µM), S9 metabolic activation: with S9, exposure time: 3-4 hours	0.28	1.7	104
concentration: 128 (µM), S9 metabolic activation: without S9, exposure time: 24 hours	1.8	2.14	71.3
concentration: 160 (µM), S9 metabolic activation: with S9, exposure time: 3-4 hours	0.29	1.33	89
concentration: 160 (µM), S9 metabolic activation: without S9, exposure time: 24 hours	1.5	1.98	70.2
concentration: 200 (µM), S9 metabolic activation: with S9, exposure time: 3-4 hours	0.35	2.45	58.5
concentration: 200 (µM), S9 metabolic activation: without S9, exposure time: 24 hours	1.58	1.78	51.2

c1ccc(C2CO2)cc1 (stereo not given) [Styrene oxide]
Settings	hypodiploid nuclei frequency, CHO-K1 [2] [%]	micronucleus frequency, CHO-K1 [1] [%]	relative survival, CHO-K1 [3]
concentration: 4.5 (µM), S9 metabolic activation: with S9, exposure time: 3-4 hours	0.42	1.44	137
concentration: 4.5 (µM), S9 metabolic activation: without S9, exposure time: 24 hours	0.46	1.2	102
concentration: 5.63 (µM), S9 metabolic activation: with S9, exposure time: 3-4 hours	0.42	1.96	141
concentration: 5.63 (µM), S9 metabolic activation: without S9, exposure time: 24 hours	0.54	1.16	98.5
concentration: 7.04 (µM), S9 metabolic activation: with S9, exposure time: 3-4 hours	0.32	1.44	137
concentration: 7.04 (µM), S9 metabolic activation: without S9, exposure time: 24 hours	0.48	1.34	101
concentration: 8.8 (µM), S9 metabolic activation: with S9, exposure time: 3-4 hours	0.3	1.4	113
concentration: 8.8 (µM), S9 metabolic activation: without S9, exposure time: 24 hours	0.62	1.56	85.2
concentration: 11 (µM), S9 metabolic activation: with S9, exposure time: 3-4 hours	0.14	1.36	102
concentration: 11 (µM), S9 metabolic activation: without S9, exposure time: 24 hours	0.58	1.34	115
concentration: 13.7 (µM), S9 metabolic activation: with S9, exposure time: 3-4 hours	0.2	1.7	137
concentration: 13.7 (µM), S9 metabolic activation: without S9, exposure time: 24 hours	0.76	1.28	112
concentration: 17.2 (µM), S9 metabolic activation: with S9, exposure time: 3-4 hours	0.3	2.14	127
concentration: 17.2 (µM), S9 metabolic activation: without S9, exposure time: 24 hours	0.62	1.24	97.3
concentration: 21.5 (µM), S9 metabolic activation: with S9, exposure time: 3-4 hours	0.26	1.26	115
concentration: 21.5 (µM), S9 metabolic activation: without S9, exposure time: 24 hours	0.54	1.42	94.9
concentration: 26.8 (µM), S9 metabolic activation: with S9, exposure time: 3-4 hours	0.32	1.08	112
concentration: 26.8 (µM), S9 metabolic activation: without S9, exposure time: 24 hours	0.72	1.16	67.2
concentration: 33.6 (µM), S9 metabolic activation: with S9, exposure time: 3-4 hours	0.28	1.28	108
concentration: 33.6 (µM), S9 metabolic activation: without S9, exposure time: 24 hours	0.74	2.02	101
concentration: 41.9 (µM), S9 metabolic activation: with S9, exposure time: 3-4 hours	0.34	1.08	102
concentration: 41.9 (µM), S9 metabolic activation: without S9, exposure time: 24 hours	0.92	1.48	107
concentration: 52.4 (µM), S9 metabolic activation: with S9, exposure time: 3-4 hours	0.28	1	110
concentration: 52.4 (µM), S9 metabolic activation: without S9, exposure time: 24 hours	1.04	1.98	94.9
concentration: 65.5 (µM), S9 metabolic activation: with S9, exposure time: 3-4 hours	0.32	1.56	93.8
concentration: 65.5 (µM), S9 metabolic activation: without S9, exposure time: 24 hours	0.92	1.6	69.8
concentration: 81.9 (µM), S9 metabolic activation: with S9, exposure time: 3-4 hours	0.34	1.44	94.7
concentration: 81.9 (µM), S9 metabolic activation: without S9, exposure time: 24 hours	0.7	1.54	99.3
concentration: 102 (µM), S9 metabolic activation: with S9, exposure time: 3-4 hours	0.2	1	112
concentration: 102 (µM), S9 metabolic activation: without S9, exposure time: 24 hours	0.82	1.42	108
concentration: 128 (µM), S9 metabolic activation: with S9, exposure time: 3-4 hours	0.2	1.68	90.7
concentration: 128 (µM), S9 metabolic activation: without S9, exposure time: 24 hours	0.8	2.02	108
concentration: 160 (µM), S9 metabolic activation: with S9, exposure time: 3-4 hours	0.3	1.6	88
concentration: 160 (µM), S9 metabolic activation: without S9, exposure time: 24 hours	0.86	2.42	76.6
concentration: 200 (µM), S9 metabolic activation: with S9, exposure time: 3-4 hours	0.14	1.62	109
concentration: 200 (µM), S9 metabolic activation: without S9, exposure time: 24 hours	0.92	3.04	88.1
